In the supplement of paper PMC10126150:
Sequences with one replicate were seen in a single cluster, so their values are uncertain.

Test system: ATP
Experiment: switch fluorescence ratio, 500 uM ATP over buffer (Cy3 cluster intensity, sum of 5 cycles each) (fold (ratio)); higher = stronger signal-on switching upon ATP binding; sequences stand for … in TCGTCGGCAGCGTCAGATGTGTATAAGAGACAGTTTTTTTTTTTTTTTTTTTTTTTTT…TC
Details: aptamer strand: ATP DNA aptamer (quencher-CACCTGGGGGAGTATTGCGGAGGAAGG + anchor), 100 nM annealed; ATP concentration: 500 uM; one replicate
Outline: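 Five buffer/ATP imaging cycles were run on Cy3-labelled switching-strand clusters on a modified Illumina MiSeq flow-cell, with NaOH stripping and re-annealing between cycles. In each cycle, clusters annealed to 100 nM quencher-labelled ATP aptamer were imaged in selection buffer, then after 15 min with 500 uM ATP at 22 °C. Per cluster, the fluorescence ratio is summed target-cycle over summed buffer-cycle Cy3 intensity, averaged per switch-domain sequence. Only clusters within 100-1000 RFU were kept.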
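Also: ATP exposure 15 min at 22 °C before imaging.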

Sequence | switch fluorescence ratio
CCATTAGATT | 0.98
AATGTTGTCT | 0.975
ATGTCGCGGA | 0.967
GCTGAAGAGG | 0.972
ACGGAGACCT | 1.18
AGAGAGTCA | 0.962
AAGAGGAACT | 1.04
CCACATGGCG | 1.03
GGAGTGGACC | 1.02
CCCCGGCAGG | 1.27
CCCAATGG | 1.87
GATGCTTATT | 0.999
TATCACCCTT | 1.02
AGCAGCAGGT | 1.03
GAACTTGCGG | 1.03
ACGAAAGCTC | 1.14
ATGTGTTTCG | 1
TCCCCATCAG | 1.04
CAGGCGGCGA | 1
GGTCGGATCT | 0.993
AGCCACGAAA | 1.11
TGACGTAATC | 4.26
CACGACTATA | 1.14

Sequence | switch fluorescence ratio
GGCCCGACTT | 0.999
ATACAAGTTT | 1.04
GGTTATAC | 1.05
TTTTCCTGAA | 0.991
TTTTACATGA | 0.985
AACTGTCTTA | 0.978
GAAGGGGAC | 1.01
AAAAAAGGCT | 1.03
ATATATAATT | 1.02
TTGCGCTAGA | 1.04
GGTGGCTCTC | 0.964
TTGTTCAATG | 1.01
GGTGCCGGAG | 1
TGCTTATAT | 1.03
TTTGACTCGA | 1.01
CCCCTTCCTA | 1.57
GCGTAAGG | 1
GAGGGAATAA | 1.46
GCTACGAAGG | 1.03
TCTGAGGCTG | 1.05
GGGTCCCTAC | 1.26
TTAAGAACGA | 0.986
GTATTCGGGG | 0.974

Sequence | switch fluorescence ratio
GGGACCTTAG | 0.982
GCGTCATCGC | 1.02
TTTAATCTTG | 1.01
AAACCCGTAT | 1.06
AATTCGTTGT | 1.06
GTCTTTGTTG | 0.974
GGTGAGTGCC | 1.05
TTGTTCTTCG | 1.02
AACTACTTAT | 1.88
CGCGGGCATC | 1.08
ACGGAACGGT | 1.01
ATTTCGCGCG | 0.963
CGATCTACGT | 1.02
CCATAATGAT | 0.994
TTGGCACATG | 0.983
TTATTTGATG | 1.03
TTGGTCAGGT | 0.989
TCGTAATATG | 1.18
GCACTAAGG | 1.08
TTTGAGCGAC | 1.04
GGTGGCCCCC | 1.02
TGCGACGGGC | 1.15
TGCTAGTTTG | 1.03

Sequence | switch fluorescence ratio
GCGCAAGG | 1.09
CTGTAACTGC | 1.21
TCCTATATTT | 1.04
GGACCTAGGC | 0.978
TCAGTCGGG | 1.01
TAGAGGCTAC | 1.02
AGGTTGCTT | 0.991
AAAGCGTAGG | 1.06
GGGCCCAATC | 0.988
ATCGACTCAG | 1.01
AGTCGTCCGG | 0.977
ACGGTAGGCA | 1.01
AAGTTAACAT | 1.04
AGATTTCTT | 0.97
GGCCATTTTG | 1.02
CTAATAGGTT | 1.07
ATAGCAGCTA | 1
AATAGGGTAA | 1.01
TAGTACTTGA | 1.03
ACCCATCGTA | 0.947
TGGGAAACGG | 1.09
CGGCATATGC | 1.19
TTTTCACTAT | 1.04

Sequence | switch fluorescence ratio
CGGGTTCATT | 0.969
ACAGACTACA | 1.34
ATGGAATTAG | 1.03
AGGATAGAGA | 1
AACGAAATGG | 1.19
TGCGGCTACT | 1.03
CGTAGAACGT | 0.956
CCGGCCATTT | 1.08
CCGCGTTACA | 4.87
CTCGAGTTCG | 0.996
TAGGGAGCCC | 0.989
GAGGAAAGTG | 0.966
ACCTCCTTGC | 1.85
AAAATCACTT | 1.06
AAACAATACA | 1.05
ATAAGTTGTG | 1.04
CCAGTCTGCA | 1.17
TCTCAGGAAT | 1.44
TAGTTGCTAA | 0.987
CTTGAAAATG | 1
GAATCTGGTG | 1.1
CACGGCGTCC | 1.02
AGGCCCTGCG | 1.24

Sequence | switch fluorescence ratio
ATAGACGCGG | 0.995
AAGGGGAGA | 1.03
CGATTAGCCT | 1.08
GGTGATGAAG | 0.974
TCGAGAGCCT | 1.03
CAAAGCCGTG | 1.02
CGGCGTTACC | 1.11
GATCGTCGGT | 0.997
GGTAGCGAG | 1
GGGATCCGAA | 0.961
TGACTTTGCG | 0.984
CATATAACAA | 1.02
TTGGATGCGC | 0.933
AAGTGGGAGT | 0.946
CGAGCCTCT | 0.981
TCTTGCGAC | 1.16
TCTATTACAC | 1.07
GCAGTCTATA | 0.972
GCCATGTTCG | 1.03
GAATGAGTAA | 1
GGCGGTAGGC | 1.01
ACTTGGGCTA | 0.959
AAAGGGGCAA | 1.02

Sequence | switch fluorescence ratio
CGGTCTGGAA | 1.01
ATCATTATCG | 0.976
ATGCTATATT | 1.01
AGTAAACGCA | 1.07
TGGCCTGAAC | 1.1
GATAGATCGG | 0.96
AAGGTGAGGA | 1.03
TGTGTCTAAC | 1.06
TAGGCATGTG | 0.982
CTATGGGGGC | 0.982
ACAGTGGTGC | 1
GAGCACTCCG | 1.2
GTGGCCGTAG | 0.978
CCAGGTGCAG | 1.38
CTTGGTCCGC | 2.71
CAGTGCGATT | 0.983
CCGATCATCA | 1.08
ATTGGTCATC | 1.01
TCGAGTCAGG | 1.02
